According to paper PMC9911399, “Two distinct binding modes provide the RNA-binding protein RbFox with extraordinary sequence specificity”:
Where a chain is given by its changes, count along the chain named. The list shows a part of the results.

T1: RBFOX1 RRM RbFoxmut (Fox-RRM*) (Homo sapiens, UniProt Q9NWB1 109-208, R118D;E147R;N151S;E152T)
T1 sequence: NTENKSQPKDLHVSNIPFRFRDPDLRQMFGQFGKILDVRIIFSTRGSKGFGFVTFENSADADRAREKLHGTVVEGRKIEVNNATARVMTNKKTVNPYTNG

B1: CAACUGU (DNA:RNA)
RNA: GGGAGACCGGAAUUCAGAUUGUCCCAACUGUUUAAAUCCCGUCGUAGCCACCA
DNA 1: CAATCTGAATTCCGGTCTCCC
DNA 2: TGGTGGCTACGACGGGATT
B2: CAGGACA (DNA:RNA)
RNA: B1 RNA with A27G, C28G, U29A, G30C, U31A
DNA 1: CAATCTGAATTCCGGTCTCCC
DNA 2: TGGTGGCTACGACGGGATT
B3: UACGGGU (DNA:RNA)
RNA: B1 RNA with C25U, A27C, C28G, U29G
DNA 1: CAATCTGAATTCCGGTCTCCC
DNA 2: TGGTGGCTACGACGGGATT
B4: UAUCUUG (DNA:RNA)
RNA: B1 RNA with C25U, A27U, G30U, U31G
DNA 1: CAATCTGAATTCCGGTCTCCC
DNA 2: TGGTGGCTACGACGGGATT
B5: GGGCACU (DNA:RNA)
RNA: B1 RNA with C25G, A26G, A27G, U29A, G30C
DNA 1: CAATCTGAATTCCGGTCTCCC
DNA 2: TGGTGGCTACGACGGGATT
B6: AGGAGUA (DNA:RNA)
RNA: GGGAGACCGGAAUUCAGAUUGUCCAGGAGUAUUAAAUCCCGUCGUAGCCACCA
DNA 1: CAATCTGAATTCCGGTCTCCC
DNA 2: TGGTGGCTACGACGGGATT
B7: UUGACUC (DNA:RNA)
RNA: B6 RNA with A25U, G26U, G29C, A31C
DNA 1: CAATCTGAATTCCGGTCTCCC
DNA 2: TGGTGGCTACGACGGGATT
B8: GCGUAUC (DNA:RNA)
RNA: B6 RNA with A25G, G26C, A28U, G29A, A31C
DNA 1: CAATCTGAATTCCGGTCTCCC
DNA 2: TGGTGGCTACGACGGGATT
B9: CCACUAG (DNA:RNA)
RNA: B1 RNA with A26C, G30A, U31G
DNA 1: CAATCTGAATTCCGGTCTCCC
DNA 2: TGGTGGCTACGACGGGATT
B10: ACCUGCA (DNA:RNA)
RNA: B6 RNA with G26C, G27C, A28U, U30C
DNA 1: CAATCTGAATTCCGGTCTCCC
DNA 2: TGGTGGCTACGACGGGATT
B11: CUACCCC (DNA:RNA)
RNA: B1 RNA with A26U, U29C, G30C, U31C
DNA 1: CAATCTGAATTCCGGTCTCCC
DNA 2: TGGTGGCTACGACGGGATT
B12: CGUACAU (DNA:RNA)
RNA: B6 RNA with A25C, G27U, G29C, U30A, A31U
DNA 1: CAATCTGAATTCCGGTCTCCC
DNA 2: TGGTGGCTACGACGGGATT
B13: AGAAAUC (DNA:RNA)
RNA: B6 RNA with G27A, G29A, A31C
DNA 1: CAATCTGAATTCCGGTCTCCC
DNA 2: TGGTGGCTACGACGGGATT
B14: GACGUCG (DNA:RNA)
RNA: B1 RNA with C25G, A27C, C28G, G30C, U31G
DNA 1: CAATCTGAATTCCGGTCTCCC
DNA 2: TGGTGGCTACGACGGGATT
B15: UCCGUUU (DNA:RNA)
RNA: B1 RNA with C25U, A26C, A27C, C28G, G30U
DNA 1: CAATCTGAATTCCGGTCTCCC
DNA 2: TGGTGGCTACGACGGGATT
B16: AAGCUUU (DNA:RNA)
RNA: B1 RNA with C25A, A27G, G30U
DNA 1: CAATCTGAATTCCGGTCTCCC
DNA 2: TGGTGGCTACGACGGGATT
B17: UGCAAAC (DNA:RNA)
RNA: B6 RNA with A25U, G27C, G29A, U30A, A31C
DNA 1: CAATCTGAATTCCGGTCTCCC
DNA 2: TGGTGGCTACGACGGGATT
B18: AUCCCGA (DNA:RNA)
RNA: B6 RNA with G26U, G27C, A28C, G29C, U30G
DNA 1: CAATCTGAATTCCGGTCTCCC
DNA 2: TGGTGGCTACGACGGGATT
B19: AAUACCC (DNA:RNA)
RNA: B6 RNA with G26A, G27U, G29C, U30C, A31C
DNA 1: CAATCTGAATTCCGGTCTCCC
DNA 2: TGGTGGCTACGACGGGATT
B20: UCUCACG (DNA:RNA)
RNA: B1 RNA with C25U, A26C, A27U, U29A, G30C, U31G
DNA 1: CAATCTGAATTCCGGTCTCCC
DNA 2: TGGTGGCTACGACGGGATT

Molecular target: T1, RBFOX1 RRM RbFoxmut (Fox-RRM*)
Experiment: EMSA; HiTS-Eq, 1 nM pool, 10 min; buffer printed only for the single-RNA assays: 10 mM Tris pH 7.5, 150 mM NaCl, 3.4 mM EDTA, 0.001% NP-40, 30 C
Settings: tags: His6 N-terminal (pET28a); label: 5' 32P
Outline: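 These values rest on relative association constants, computed from read-count changes of each RNA species versus the control reaction and normalised to the cognate motif. Reads came from free RNA recovered by 8% native PAGE after purified RbFox RRM (wild type or mutant) at increasing concentrations was equilibrated for 10 min in 50 µL with 1 nM of a 5′-radiolabelled pool with 7 randomized nucleotides and DNA-annealed flanks.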

| Binder | binding signal |
| --- | --- |
| B1 | 0.0791 KA relative to UGCAUGU |
| B2 | 0.0416 KA relative to UGCAUGU |
| B3 | 0.09 KA relative to UGCAUGU |
| B4 | 0.0958 KA relative to UGCAUGU |
| B5 | 0.0517 KA relative to UGCAUGU |
| B6 | 0.168 KA relative to UGCAUGU |
| B7 | 0.0703 KA relative to UGCAUGU |
| B8 | 0.194 KA relative to UGCAUGU |
| B9 | 0.106 KA relative to UGCAUGU |
| B10 | 0.198 KA relative to UGCAUGU |
| B11 | 0.057 KA relative to UGCAUGU |
| B12 | 0.0548 KA relative to UGCAUGU |
| B13 | 0.0464 KA relative to UGCAUGU |
| B14 | 0.123 KA relative to UGCAUGU |
| B15 | 0.0695 KA relative to UGCAUGU |
| B16 | 0.0764 KA relative to UGCAUGU |
| B17 | 0.0759 KA relative to UGCAUGU |
| B18 | 0.0862 KA relative to UGCAUGU |
| B19 | 0.0723 KA relative to UGCAUGU |
| B20 | 0.123 KA relative to UGCAUGU |
